Experimental data as given in the supplement of paper PMC11417369.
The other results are listed elsewhere or left out.

The sequences below were run on PfSIP2 AP2 domain 1 (GST-tagged) (assay: gcPBM binding intensity (ln(normalized median fluorescence intensity)); higher = stronger DNA binding).
How it was run: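 DNA-binding domains from P. falciparum, fused to GST and produced in E. coli, were put on an Agilent 4 × 180k double-stranded probe array for 1 h in 1× PBS holding 1% milk, 0.2 mg/ml BSA, 0.5% salmon testes DNA and 0.03% Triton X-100. Probes were primer-extended, 36 bp long and drawn from intergenic genomic regions, with negative controls included. After Alexa488 anti-GST antibody detection and a 488 nm scan, binding intensity was set as the highest Masliner-normalised natural-log median intensity across replicate spots of either probe orientation.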

Sequence | gcPBM binding intensity (ln)
ATATTTATTTAATGAACACACGATATATTATTTTAT [CACACA_site1602] | 6.86
ATATAGAATATATTAACATGCAATAAGTAAAGGGGG [TGCATGCA_site1022] | 7.91
CACTTCATAAAAATTGCACACATATAATAATGTACA [CACACA_site8692] | 7.43
ACAATGAAATATTCATGTACATATAAATAATAGTGT [XGTACX_site3762] | 7.21
AAAATGATAATACCAAGTACACATATGAAAAATACA [XGTACX_site6763] | 7.18
TGTTTTCCCTTTAGTGTGCACGTATTTCTATTAACA [GTGCAC_site9847] | 10
TAAATCATTTATTAAGTGCAATATTCTTTTTGAGAT | 7.44
TAAAAACATTTAAATTGTACGGAAATAAAAATTTTT [XGTACX_site8225] | 6.94
ATATAAATATTAAATACACACATTTTTGATTAGGTT [CACACA_site7461] | 6.82
TATTTCGTAATTTAATAATATACAAGAAATATATAT [XGTACX_negctrl_site143] | 6.98
TATGTGTATAATAAAAGTACATATATTATTATATAA [XGTACX_site8556] | 7.14
TAAAATAATAAAACAACACACAAATAGTTAAAATAG [CACACA_site1680] | 7.1
ATTGACGTCATATAAACATGCACATTTTGGATGTTT [TGCATGCA_site985] | 7.06
CATATAATAAAAAATGTACACACATAAGAAAATTTA [CACACA_site8943] | 7.08
TAAATATAATAAGAACAAACAAAATAGTACAATATA [TGCATGCA_negctrl_site364] | 7.29
TTTTTTTTAAATTGTGGTACACAAATTCATATATAT [XGTACX_site8944] | 7.21
AAAAGAAAAAAAAGTACACACATGTATATTAATCGT [CACACA_site2528] | 7.11
GTCATATTATTATTACGTACTTAAATATATAATATA [XGTACX_site3405] | 7.23
TGTTAACTTAAAAAAATACCTACGGAAAAATCACAA [TGCATGCA_negctrl_site433] | 6.93
TACAAAATACAAAAATGTACATAAAAATTTATAAAA [XGTACX_site6861] | 6.99
ATATTAAAATATAATCGTACAATTAAATTTTTTTTT [XGTACX_site2739] | 6.99
TACAGATACGGACACACACACACACCCAGACAAAAA [CACACA_site4432] | 7.54

Sequence | gcPBM binding intensity (ln)
AATAAATAAAAAATTACACACATATTTATAAATATA [CACACA_site7584] | 6.86
TTTGTTTTTATTTACACATGCAAAAAAAAAAAAAAA [TGCATGCA_site655] | 7.16
CACAAAAATAAATATAAACACACAATAAATAAATAA [CACACA_site8197] | 6.79
TAAAATAAGTTAAAAAGTACATAATTATAATAAATA [XGTACX_site8108] | 6.89
ATATATATATATATTCCACACACACCCAAAAAAAAA [CACACA_site9215] | 9.32
CCCCCCCACGAACACACACACATACATACCACATAT [CACACA_site7149] | 9.05
TTATAATAGTTAATATGTACATATTTAATAAATAAT [XGTACX_site3183] | 7.05
TACTATTTAAAATATGAACACACATTATTTGTTTTA [CACACA_site8870] | 6.85
CACAAAAATAAACACACACACATATATATTTATTAT [CACACA_site5923] | 7.03
TAAATTAAAAGACACACACACAAAAAAAAAAAAAAA [CACACA_site7131] | 6.91
GGAAACTAAAGGAATAAAACTATGGAAATTAATTAA [CACACA_negctrl_site1647] | 6.64
ATTCAAAATTATAGGTGTACGTATTTTTTTTTTTTT [XGTACX_site7177] | 8.4
AGATGATATAATGGCACACAAATATTTTATTATAAA [CACACA_site3553] | 6.95
TAAATTTATAAATCACGTACATATTTATTTATATTT [XGTACX_site4532] | 6.87
ATAATTTCATAATACGTGCACATAATATATAAAAAA | 10.5
AATAAAAATATATCCACACACATATATATATATGTA [CACACA_site576] | 7.13
ATATGAATATATATATGTACTAATTAGTAGTTTACG [XGTACX_site6273] | 7.22
AGAAATTTACAAATACGTACACACATATATATATAT [XGTACX_site3141] | 9.61
GAAGATATGTAAAATTGTACATATTATTTTATTTTA [XGTACX_site5302] | 6.88
TCATAACAACTTTGTGTGCACATAAAACATGTATAT | 8.91
TTTTTTTTTTCATTCACACAAAAAAAAAAAATTTAT [CACACA_site5921] | 6.76
TATAAGACATGATATATACACACCTTGTTTTAATTT [CACACA_site2266] | 6.76
